This is one part of the list. The energies were worked out here from pooled read counts, against the library average; single values are noisy.

This assay concerns the target T1, Pho4 (S. cerevisiae) (UniProt P07270).
T1 sequence: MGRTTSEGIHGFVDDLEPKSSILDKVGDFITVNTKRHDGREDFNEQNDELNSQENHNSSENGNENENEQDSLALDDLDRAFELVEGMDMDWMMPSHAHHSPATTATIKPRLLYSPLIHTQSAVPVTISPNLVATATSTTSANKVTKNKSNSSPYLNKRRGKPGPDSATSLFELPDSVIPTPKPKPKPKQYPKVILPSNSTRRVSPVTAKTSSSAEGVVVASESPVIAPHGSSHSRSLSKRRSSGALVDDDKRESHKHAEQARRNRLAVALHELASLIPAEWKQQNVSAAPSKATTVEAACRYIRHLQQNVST
The assay can be described thus: relative binding free energy (BET-seq); higher = weaker binding. The following applies: reference: library average.
For the sequence AGTGGCACGTGGTAGT, the “relative binding free energy” value was -0.13 kcal/mol.

On to CGGTACACGTGGTCGG, for which the “relative binding free energy” value is -0.15 kcal/mol.

With GGTGGCACGTGGCAGG, the “relative binding free energy” value is -0.18 kcal/mol.

Regarding TGTGACACGTGAAAGT, the “relative binding free energy” value was found to be 0.35 kcal/mol.

AGGTTCACGTGGCAAT: the “relative binding free energy” value was 0.36 kcal/mol.

As for CGTAACACGTGGTTTT, the “relative binding free energy” value is -0.04 kcal/mol.

As to GACTACACGTGGGTGT, the “relative binding free energy” value was -0.03 kcal/mol.

Regarding TGGGTCACGTGTTCGA, the “relative binding free energy” value is 0.12 kcal/mol.

Take TGGTACACGTGCGATA: the “relative binding free energy” value was determined as 0.14 kcal/mol.

On to GGCGGCACGTGTTTGT, for which the “relative binding free energy” value was -0.01 kcal/mol.

Regarding AAGGTCACGTGGGCGG, the “relative binding free energy” value was -0.03 kcal/mol.

Regarding TTGTGCACGTGCAGGG, the “relative binding free energy” value was -0.01 kcal/mol.

On to TGACTCACGTGGCGTG, for which the “relative binding free energy” value worked out at 0.13 kcal/mol.

As to GCTAACACGTGGTGGG, the “relative binding free energy” value is -0.15 kcal/mol.

Turning to GTTGTCACGTGATCAG, the “relative binding free energy” value is -0.03 kcal/mol.

TAAGGCACGTGTGCGG: the “relative binding free energy” value was -0.12 kcal/mol.

For TGAAGCACGTGGGTAG, the “relative binding free energy” value is -0.21 kcal/mol.

Take ATGCGCACGTGTTAGT: the “relative binding free energy” value was -0.1 kcal/mol.

Regarding GTCTGCACGTGGTGAG, the “relative binding free energy” value was -0.03 kcal/mol.

As to GGTAGCACGTGGGCAG, the “relative binding free energy” value was -0.3 kcal/mol.

As for GTAGGCACGTGTTGGT, the “relative binding free energy” value came to 0.02 kcal/mol.

Consider GCGTACACGTGTGGGG, for which the “relative binding free energy” value was determined as 0.01 kcal/mol.

In the case of GGTTCCACGTGGAGGG, the “relative binding free energy” value came out at 0.01 kcal/mol.

Turning to ATTTACACGTGTCTGG, the “relative binding free energy” value came to 0.03 kcal/mol.

TCCGTCACGTGGGTGA: the “relative binding free energy” value is -0.02 kcal/mol.

As for AGTAACACGTGTTCGT, the “relative binding free energy” value was -0.07 kcal/mol.

For the sequence TGAGGCACGTGTACTT, the “relative binding free energy” value was -0.01 kcal/mol.

For the sequence TGGTTCACGTGTATAA, the “relative binding free energy” value amounted to 0.25 kcal/mol.

For the sequence AGTCGCACGTGTTTGA, the “relative binding free energy” value is -0.06 kcal/mol.

Consider TTGTTCACGTGGGCAT, for which the “relative binding free energy” value amounted to 0.21 kcal/mol.

Consider TAAGTCACGTGCTAAG, for which the “relative binding free energy” value was 0.22 kcal/mol.

Turning to TTCAACACGTGTATGT, the “relative binding free energy” value amounted to 0.03 kcal/mol.

Regarding GGTAGCACGTGTGTGG, the “relative binding free energy” value was -0.02 kcal/mol.

On to TTGTCCACGTGGGGCG, for which the “relative binding free energy” value is -0.13 kcal/mol.

With CTGTTCACGTGGCGTG, the “relative binding free energy” value came out at 0.18 kcal/mol.

As to CGGGGCACGTGGGCTA, the “relative binding free energy” value is -0.19 kcal/mol.

As to GGCGTCACGTGTCGTT, the “relative binding free energy” value came out at 0.15 kcal/mol.

As to GGTGGCACGTGAATAT, the “relative binding free energy” value was found to be 0.28 kcal/mol.

For the sequence TAGTGCACGTGGATTA, the “relative binding free energy” value worked out at 0.02 kcal/mol.

TGAGGCACGTGTGCCG: the “relative binding free energy” value was -0.07 kcal/mol.

With TGGAGCACGTGGGAAG, the “relative binding free energy” value is -0.04 kcal/mol.

Consider GTGCGCACGTGGCCGG, for which the “relative binding free energy” value was -0.14 kcal/mol.

On to AAAGTCACGTGTGTAG, for which the “relative binding free energy” value was found to be 0.18 kcal/mol.

Turning to GTTTGCACGTGCTTAA, the “relative binding free energy” value was determined as 0.02 kcal/mol.

As for AGTACCACGTGTAGGA, the “relative binding free energy” value came to 0.06 kcal/mol.

On to GGGATCACGTGAGTTC, for which the “relative binding free energy” value was found to be 0.52 kcal/mol.

For the sequence TGGTGCACGTGGTGTA, the “relative binding free energy” value was -0.12 kcal/mol.

For GCGTTCACGTGATCGG, the “relative binding free energy” value stood at 0.48 kcal/mol.

Regarding GGAGTCACGTGTTGGA, the “relative binding free energy” value was 0.16 kcal/mol.

As to AGGTACACGTGGGCCT, the “relative binding free energy” value was 0.03 kcal/mol.

As for ATGTACACGTGTTGGT, the “relative binding free energy” value came out at 0.1 kcal/mol.

Take TTCGTCACGTGAGCGT: the “relative binding free energy” value was found to be 0.16 kcal/mol.

AGTGTCACGTGAGAGA: the “relative binding free energy” value came out at 0.26 kcal/mol.

Turning to TGGTGCACGTGCTCTT, the “relative binding free energy” value is 0.05 kcal/mol.

ACTGGCACGTGATGGG: the “relative binding free energy” value was -0.06 kcal/mol.

As to TTTAACACGTGCGGTT, the “relative binding free energy” value amounted to 0 kcal/mol.

As for TGCTGCACGTGACGGT, the “relative binding free energy” value is -0.04 kcal/mol.

With ACTTTCACGTGAAGGT, the “relative binding free energy” value turned out to be 0.28 kcal/mol.

In the case of GGTTGCACGTGGCCGG, the “relative binding free energy” value was -0.08 kcal/mol.

Take TGCTTCACGTGGCGTA: the “relative binding free energy” value was determined as 0.25 kcal/mol.

Regarding GTGGTCACGTGCCAGG, the “relative binding free energy” value was 0.04 kcal/mol.

On to GAGAGCACGTGCGGGT, for which the “relative binding free energy” value is -0.09 kcal/mol.

Consider AGTAGCACGTGGTGCT, for which the “relative binding free energy” value is -0.21 kcal/mol.
